Data as given in PubChem BioAssay AID463173 (ICCB-Longwood Screening Facility, Harvard Medical School, 2010).
Hit rate of the full screen: of about 52,000 compounds, about 4,300 (8.3%) were called active. Cut-off read from the data, not from the text of the source: active = survival mostly below about 52% (no sharp cut-off); inactive = mostly above about 56%. Some of the results follow.

System: DeltatarO mutant
Assay: S. aureus survival, RN4220 and DeltatarO strains – OD600, teichoic acid synthesis inhibitors, primary screen (AID 463173)
Conditions: S. aureus RN4220 wild type/DeltatarO growth, OD600, 18 h, hits give low values, screened at 18.75 µg/mL (by protocol)

| SMILES | survival |
| --- | --- |
| Cc1ccc(-c2nc(-c3cc4cccc(OCc5ccc(F)cc5)c4oc3=O)no2)cc1 | inactive: 69% |
| Cc1ccc(CNC(=O)C2CCCCN2S(=O)(=O)c2ccc(F)cc2)cc1 (stereo unspecified) | inactive: 84% |
| Cc1ccc(NC(=O)CSc2nc(-c3ccc(C(C)(C)C)cc3)nc3cc(=O)[nH]n23)cc1C | inactive: 84% |
| CSc1ncc(C(=O)Nc2cccc(C)c2C)c(-c2ccccc2)n1 | inactive: 83% |
| COc1ccc(CNC(=O)C2CCN(S(=O)(=O)c3ccc(F)cc3)CC2)cc1 | inactive: 71% |
| CC(CO)(CO)N=Cc1c(O)[nH]c(=O)[nH]c1=O | inactive: 97% |
| COc1ccc(OCCn2c(C(C)Oc3ccccc3)nc3ccccc32)cc1 (stereo unspecified) | active: 48% |
| CC1C(=O)Nc2ccc(S(=O)(=O)NCc3ccc(N(C)C)cc3)cc2NC1=O (stereo unspecified) | inactive: 74% |
| Cc1ccc(Cl)cc1-n1ncc2c(NCc3ccc(F)cc3)ncnc21 | inactive: 77% |
| C=CCn1c(SCC(=O)c2cccs2)nc2sc(C)cc2c1=O | inactive: 93% |
| COc1ccc(Cn2c(CCC(=O)Nc3ccc(C)c(C)c3)nc3cccnc32)cc1 | inactive: 67% |
| CCCN(CCC)C(=O)CN1C(=O)CSc2ccc(S(=O)(=O)N3CCC(C)CC3)cc21 | inactive: 78% |
| CC(=O)N1CCc2cc(S(=O)(=O)NC(CC(C)C)C(=O)NCCc3ccc(C)cc3)ccc21 (stereo unspecified) | inactive: 80% |
| COc1cccc(C(=O)c2cn(CC(=O)Nc3cccc(C(F)(F)F)c3)c3nc(C)ccc3c2=O)c1 | inactive: 69% |
| CCN(CC)S(=O)(=O)c1ccc2c(c1)nc(CN(C)C(=O)Nc1cccc(Cl)c1)n2C | inactive: 87% |
| CN(Cc1ccccc1)C(=O)c1cc2nc(-c3ccco3)cc(C(F)(F)F)n2n1 | inactive: 101% |
| Cc1cc(NC(=O)CC(C)C)no1 | inactive: 69% |
| Cc1nc2nc(NCc3cccc(Cl)c3)[nH]n2c(=O)c1Cc1ccccc1 | inactive: 78% |
| CCOc1ccc2nc(N3CCCC(C(=O)NCCCOC)C3)sc2c1 (stereo unspecified) | inactive: 79% |
| COC(=O)c1ccc(Cn2c(SCc3ccccc3F)nc3ccncc32)cc1 | active: 42% |
| CCOc1ccc(CCNC(=O)Cn2c(=O)c3cccn3c3ccc(F)cc32)cc1OCC | inactive: 74% |
| CCOc1cc(CNc2ccc(C(=O)O)cc2)ccc1OCc1ccccc1 | active: 47% |
| Cc1ccc(C)[n+](C)c1 | inactive: 108% |

| SMILES | survival |
| --- | --- |
| O=C(O)c1c(-c2ccccc2)oc2ccc(OCc3ccc(Cl)c(Cl)c3)cc12 | active: -1% |
| CN1C(=O)N(C)C2OC3OC4C(OC3OC21)N(C)C(=O)N4C (stereo unspecified) | inactive: 105% |
| COc1ccc(-c2cccc(NS(=O)(=O)c3ccc(C)s3)c2)nn1 | inactive: 86% |
| COCCCNC(=O)c1oc2c(c1C)-c1nn(Cc3ccc(Cl)cc3)cc1CC2 | inactive: 75% |
| Cn1cc(CCC(=O)NCc2ccc(Cl)cc2)c2ccccc21 | inactive: 110% |
| CCc1ccccc1NC(=O)N1CCC(CN2CCc3ccccc3C2)CC1 | inactive: 76% |
| Cc1ccc(C(=O)CCC(=O)Nc2ccc(C)cc2C)cc1 | inactive: 115% |
| CC1CCN(S(=O)(=O)c2ccc3c(ccc(=O)n3CC(=O)Nc3ccc(C(C)C)cc3)c2)CC1 | active: 0% |
| Nc1nc(SCC(=O)Nc2cccc(C(F)(F)F)c2)n[nH]1 | inactive: 63% |
| CCOC(=O)c1c(-c2ccc(C)cc2)csc1NC(=O)c1cc(-c2ccc(Cl)cc2)on1 | inactive: 90% |
| COc1cccc(-n2c(=O)c3c(C)c(C)sc3n(CC(=O)Nc3ccccc3OC)c2=O)c1 | inactive: 83% |
| CCc1ccc(CNCc2c(C(=O)O)c(C)n(Cc3c(F)cccc3Cl)c2C)cc1 | inactive: 82% |
| Cc1ccccc1CC1C(=O)Nc2ccc(Br)cc21 (stereo unspecified) | inactive: 80% |
| CCOc1cccc(C(=O)N(Cc2ccc(N(C)C)cc2)CC2CCCO2)c1 (stereo unspecified) | inactive: 65% |
| CCCCC(CC)CNC(=O)CN(C)S(=O)(=O)c1ccc2c(c1)c(=O)n(C)c(=O)n2C (stereo unspecified) | inactive: 73% |
| COc1ccc(NC(=O)CSC2=Nc3ccccc3C3=NC(CCC(=O)NCc4ccc(F)cc4)C(=O)N23)cc1Cl (stereo unspecified) | inactive: 76% |
| CCOC(=O)c1ccc(NC(=O)CC2Sc3ccc(C(F)(F)F)cc3NC2=O)cc1 (stereo unspecified) | inactive: 78% |
| N=C(N)SCC(=O)Nc1ccccc1 | inactive: 86% |
| CCCSc1nsc(SCCC)c1C(N)=O | inactive: 65% |
| COc1cccc(N2CCN(C(=O)C3CCN(S(=O)(=O)c4cccc5nonc45)CC3)CC2)c1 | inactive: 90% |
| Cc1nn(C)c2c1c(-c1ccccc1)cc(=O)n2Cc1ccccc1Cl | inactive: 88% |
| Cc1cc(NC(=O)CCNS(=O)(=O)c2ccc3c(c2)CCCC(=O)N3)ccc1Br | inactive: 76% |
| Cc1ccc(CN(C(=O)COc2ccc(Cl)cc2)c2ccccn2)o1 | inactive: 64% |

| SMILES | survival |
| --- | --- |
| COc1ccc(-c2nc(CCNC(=O)c3cccs3)cs2)cc1 | inactive: 109% |
| CCOc1ccc(CNC(=O)CCCn2nc(C)c3sc4ccccc4c3c2=O)cc1 | inactive: 80% |
| CCC(C)Nc1sc(S(=O)(=O)CC)nc1S(=O)(=O)c1ccc(C)cc1 (stereo unspecified) | inactive: 77% |
| COC(=O)c1cc(S(=O)(=O)NCC2CCN(Cc3ccc(C)cc3)CC2)cn1C | inactive: 73% |
| CCCOc1ccc(-c2nn(-c3ccccc3)cc2C2NC(=O)NC(C)=C2C(=O)OC)cc1 (stereo unspecified) | inactive: 61% |
| CCc1ccc(C(=O)c2cn(CC(=O)Nc3cc(OC)ccc3OC)c3ccc(C)cc3c2=O)cc1 | inactive: 71% |
| Cc1cccc(NS(=O)(=O)c2ccc3c(c2)[C@H]2C=CC[C@H]2[C@@H](c2ccc(F)cc2)N3)c1 | active: 39% |
| COc1cc(C(=O)OC(C)CN2C(C)CCCC2C)cc(OC)c1OC (stereo unspecified) | inactive: 77% |
| Cc1ccc(C)c(NC(=O)Cn2c(=O)nc(-c3ccccc3)c3ccccc32)c1 | inactive: 71% |
| CCOc1ccccc1NC(=O)c1c(NCc2ccc(C)o2)sc2c1CCC(C)C2 (stereo unspecified) | inactive: 100% |
| COc1ccc(CCNC(=O)Cn2nc(C)n3c(cc4cc(F)ccc43)c2=O)cc1OC | inactive: 118% |
| CCCCN(C)C(=O)Cn1c(C2CC(=O)N(c3ccc(C)cc3)C2)nc2ccccc21 (stereo unspecified) | inactive: 63% |
| Cc1ccc(C)c(N2CCN(C(=O)c3cc4c(=O)n(Cc5ccco5)ccc4nc3C)CC2)c1 | inactive: 83% |
| COc1cccc(C(=O)Nc2cccc(NC(=O)c3ccc(Cl)cc3Cl)c2)c1 | inactive: 71% |
| CC(=O)N(Cc1cccnc1)Cc1cc2cc3c(cc2[nH]c1=O)OCCO3 | inactive: 84% |
| CC(=O)N1c2ccccc2C(=O)C1N1CCN(c2ccc(F)cc2)CC1 (stereo unspecified) | inactive: 94% |
| COc1ccc(NC(=O)c2ccc(CNS(=O)(=O)c3ccc4c(c3)C(C)(C)C(=O)N4C)cc2)cc1 | inactive: 90% |
| CCCCN(C)C(=O)C1CCC(CNS(=O)(=O)c2ccc3c(c2)CC(C)N3C(C)=O)CC1 (stereo unspecified) | inactive: 62% |
| CCN(CC)C(=O)Cn1c(SCCOc2ccc(Cl)cc2)nc2ccccc21 | active: 43% |
| CCCc1nn2c(=O)cc(COc3ccc(/C=C(\C#N)C(=O)Nc4ccc(F)cc4)cc3)nc2s1 | inactive: 65% |
| O=C(CCS(=O)(=O)c1cc2c(cc1Cl)NC(=O)CO2)NCCc1ccc(Cl)cc1 | inactive: 106% |
| Cc1ccc(-n2nnnc2C2CCN(S(=O)(=O)c3ccc(OC(F)(F)F)cc3)CC2)cc1 | inactive: 110% |
| CC1(C)CC(=O)c2cnc(N)nc2C1 | inactive: 93% |

| SMILES | survival |
| --- | --- |
| Nc1nonc1/C(=N/O)N1CCCC1 | inactive: 113% |
| CCOc1ccccc1CNC(=O)CCc1cn(Cc2ccc(Cl)cc2)c2ccccc12 | inactive: 55% |
| Cc1ccc(OCC(O)CN2C(=O)NC(C)(C)C2=O)c(Cl)c1 (stereo unspecified) | inactive: 60% |
| CCN(C(=O)Cn1c(=O)oc2cc(S(=O)(=O)N3CCCC3)ccc21)c1cccc(C)c1 | inactive: 83% |
| COc1cccc(-n2c(=O)c3c(C)c(C(=O)N(C)C)sc3n(CC(=O)Nc3ccc(C)cc3Cl)c2=O)c1 | inactive: 74% |
| O=C(Nc1ccc2c(c1)N(C1CCCC1)C(=O)c1ccccc1S2)c1cccc(F)c1 | inactive: 54% |
| COc1cccc(CNC(=O)C2CCCN(c3ncnc4onc(-c5ccc(F)cc5)c34)C2)c1 (stereo unspecified) | inactive: 80% |
| CC(C)OCCCNC(=O)CN1C(=O)CSc2ccc(S(=O)(=O)N3CCCCC3)cc21 | inactive: 99% |
| O=c1c2cc3sccc3n2cc(-c2ccccc2)n1-n1cccc1 | inactive: 105% |
| O=C1CC(c2nc(-c3cccc(Cl)c3)no2)CN1c1ccc2c(c1)OCCO2 (stereo unspecified) | inactive: 144% |
| CC(=O)n1c2ccccc2c2cc(Cl)ccc21 | inactive: 95% |
| CCc1nnc2c(NCCc3ccc(OC)c(OC)c3)nc3ccccc3n12 | inactive: 133% |
| CN1C(N)=NC(=O)C1(CO)CO | inactive: 97% |
| COc1ccc(-c2onc(C)c2C)cc1S(=O)(=O)NCc1ccc(Br)cc1 | inactive: 101% |
| O=C1CC(c2ccco2)CC(O)=C1C=NCCN1CCNCC1 (stereo unspecified) | inactive: 92% |
| Cc1ccc2cc(C#N)c(SCC(=O)N3CCCC3)nc2c1 | inactive: 103% |
| Cc1cc(C)cc(NC(=O)CN(C)S(=O)(=O)c2ccc3[nH]c4c(c3c2)CCCC4)c1 | inactive: 72% |
| CCOc1ccc(CCNC(=O)c2c(C)oc3ncnc(N4CCOCC4)c23)cc1 | inactive: 95% |
| COCCCNC(=O)CSc1nc2ccccc2c(=O)n1Cc1ccco1 | inactive: 83% |
| Cc1ccc(NC(=O)CN2C(=O)COc3ccc(S(=O)(=O)N4CCCCCC4)cc32)cc1C | inactive: 82% |
| COc1ccc(CNC(=O)c2ccc3[nH]c(C)c(C)c3c2)c(OC)c1 | inactive: 81% |
| N#C/C(=C\c1ccc(-c2ccc(F)cc2F)o1)c1nc2ccccc2[nH]1 | active: 22% |
